Data taken from the supplement of paper PMC5919970.
Where a name gives a salt, the structure may show the parent alone. Over roughly 2,000 compounds, “fractional viability relative to vehicle” has its median near 0.91; the lowest 2% begin near 0.045. The list shows a part of the results.

Test system: TYKNU
Assay: fractional viability relative to vehicle; TYKNU is a high-grade serous ovarian cancer line; higher = less growth inhibition
Details: 72 h
In short: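 TYKNU control cells or lentiCRISPRv2 knockout derivatives were seeded at 500 cells per well into drug-stamped 384-well plates holding a ~2100-compound library at 2 or 10 μM, in duplicate. Cells were grown at 37 °C in 5% CO2 in RPMI 1640 with 10% FBS, and drug treatment lasted 72 h. Viability was read by Cell Titer Glo luminescence. Duplicate treatment wells were averaged and normalised to duplicate control wells from the same plate position.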

[1] = 2uM, genotype: DNM1L knockout (sgDNM1L #1)
[2] = 2uM, genotype: sgCTRLA1 (non-targeting control)
[3] = 10uM, genotype: DNM1L knockout (sgDNM1L #1)
[4] = 10uM, genotype: sgCTRLA1 (non-targeting control)

Row | SMILES | fractional viability [1] | fractional viability [2] | fractional viability [3] | fractional viability [4]
1 | Cc1c(C(=O)Nc2ccc(N3C[C@@H](C)O[C@@H](C)C3)nc2)cccc1-c1ccc(OC(F)(F)F)cc1 [LDE225 (NVP-LDE225,Erismodegib)] | 1 | 0.948 | 0.856 | 0.869
2 | Nc1cc(C(F)(F)F)c(-c2cc(N3CCOCC3)nc(N3CCOCC3)n2)cn1 [BKM120 (NVP-BKM120, Buparlisib)] | 0.213 | 0.292 | 0.112 | 0.108
3 | O=c1cc(N2CCOCC2)oc2c(-c3ccccc3)cccc12 | 1.16 | 0.976 | 0.985 | 0.969
4 | COc1cccc(-c2cc(F)ccc2C2Cc3nc(N)nc(C)c3C(=O)N2)n1 (centres undefined) | 0.241 | 0.191 | 0.227 | 0.201
5 | Cc1ccc(Nc2nccc(N(C)c3ccc4c(C)n(C)nc4c3)n2)cc1S(N)(=O)=O [Pazopanib] | 0.87 | 0.956 | 0.431 | 0.481
6 | CCc1ccc(/C=C2/SC(=S)NC2=O)cc1 | 0.804 | 1.18 | 0.842 | 1.06
7 | COc1cc(Nc2ncc3c(n2)-c2ccc(Cl)cc2C(c2c(F)cccc2OC)=NC3)ccc1C(=O)O [Alisertib (MLN8237)] | 0.448 | 0.516 | 0.437 | 0.527
8 | CCCCC(=O)N(Cc1ccc(-c2ccccc2-c2nnn[nH]2)cc1)[C@H](C(=O)O)C(C)C [Valsartan] | 0.97 | 1.14 | 0.887 | 1.11
9 | OCC(CO)N[C@H]1C[C@](O)(CO)[C@@H](O)[C@H](O)[C@H]1O [Voglibose] | 0.971 | 1.12 | 0.93 | 1.05
10 | Nc1ccc(/N=N/c2ccccc2)c(N)n1 [Phenazopyridine HCl] | 0.99 | 1.13 | 0.921 | 0.977
11 | CCC(=O)O[C@]1(C(=O)SCF)[C@H](C)C[C@H]2[C@@H]3C[C@H](F)C4=CC(=O)C=C[C@]4(C)[C@@]3(F)[C@@H](O)C[C@@]21C [Fluticasone propionate] | 1.02 | 1.08 | 0.696 | 0.853
12 | Cc1[nH]nc2ccc(-c3cncc(OC[C@@H](N)Cc4ccccc4)c3)cc12 | 0.23 | 0.212 | 0.137 | 0.0399
13 | CC(C)[C@H](O)C(=O)N[C@@H](C)C(=O)N[C@@H]1C(=O)N(C)CCc2ccccc21 | 1.04 | 1.25 | 0.949 | 1.15
14 | CCCc1cc2c(N3CCN(C4=NCC(C)(C)S4)CC3)ncnc2s1 [MI-2 (Menin-MLL Inhibitor)] | 0.919 | 0.869 | 0.747 | 0.665
15 | CNCc1ccc(C)c(NC(=O)c2ccc(Nc3nc(-c4ccccc4)c4ccccc4n3)cc2)c1 | 0.752 | 1.03 | 0.0487 | 0.0706
16 | CCCCN1CCCC[C@H]1C(=O)Nc1c(C)cccc1C [Levobupivacaine HCl] | 0.971 | 0.957 | 0.672 | 1.05
17 | COc1cc(CCc2cc(NC(=O)c3ccc(N4CC(C)NC(C)C4)cc3)n[nH]2)cc(OC)c1 (centres undefined) | 1.27 | 1.13 | 0.294 | 0.312
18 | Nc1ccc(C(=O)O)c(O)c1 [Sodium 4-Aminosalicylate] | 1.17 | 1.06 | 0.909 | 0.987
19 | O=C(O)c1ccccc1Nc1cccc(C(F)(F)F)c1 [Flufenamic acid] | 0.947 | 1.18 | 0.845 | 1.16
20 | Cc1cccc(C)c1OCC(=O)N[C@@H](Cc1ccccc1)[C@@H](O)C[C@H](Cc1ccccc1)NC(=O)[C@H](C(C)C)N1CCCNC1=O [Lopinavir] | 1.04 | 1.01 | 0.751 | 0.905
21 | O=C1O[C@H]([C@@H](O)CO)C(O)=C1O [Vitamin C] | 0.908 | 1.1 | 1.02 | 0.971

Row | SMILES | fractional viability [1] | fractional viability [2] | fractional viability [3] | fractional viability [4]
22 | Clc1ccc(C(c2ccccc2Cl)C(Cl)Cl)cc1 (centres undefined) [Mitotane] | 0.981 | 1.09 | 1.01 | 0.994
23 | N#CC[C@H](C1CCCC1)n1cc(-c2ncnc3[nH]ccc23)cn1 | 1.03 | 1.08 | 0.952 | 0.952
24 | CN(C[C@@H]1COCCO1)S(=O)(=O)Nc1ccc2ccc3ncc(-c4cnn(C)c4)cc3c(=O)c2c1 | 1.13 | 1.02 | 0.423 | 0.512
25 | CCCc1nn(C)c2c(=O)[nH]c(-c3cc(S(=O)(=O)N4CCN(C)CC4)ccc3OCC)nc12 [Sildenafil Citrate] | 1.02 | 1.12 | 0.866 | 0.969
26 | CCC(C)(C)C(=O)O[C@H]1C[C@@H](C)C=C2C=C[C@H](C)[C@H](CC[C@@H]3C[C@@H](O)CC(=O)O3)[C@H]21 [Simvastatin] | 0.547 | 0.562 | 0.272 | 0.259
27 | O=C(CSc1nc2c(c(=O)n1-c1ccccc1)SCC2)Nc1ccc(-c2ccccc2)cn1 | 0.803 | 0.967 | 0.732 | 0.921
28 | CCOC(=O)CC(=O)N1CCSC1COc1ccccc1OC (centres undefined) [Moguisteine] | 1.11 | 1.23 | 0.845 | 1.1
29 | CC(=O)Oc1ccc(C(c2ccc(OC(C)=O)cc2)c2ccccn2)cc1 [Bisacodyl] | 1 | 1.23 | 0.82 | 1.12
30 | CC(C)c1cnn2c(NCc3ccccc3)cc(NCCCCCCN)nc12 | 1.09 | 1.13 | 0.83 | 0.972
31 | O=S(=O)(c1cccc2cnccc12)N1CCCNCC1 [Fasudil (HA-1077) HCl] | 0.99 | 1.13 | 0.753 | 0.991
32 | COc1cc2nc(N3CCCN(C)CC3)nc(NC3CCN(Cc4ccccc4)CC3)c2cc1OC | 0.474 | 0.548 | 0.0331 | 0.0181
33 | O=C(c1ccc(F)c(F)c1Nc1ccc(I)cc1F)N1CC(O)([C@@H]2CCCCN2)C1 [Cobimetinib (GDC-0973, RG7420)] | 0.814 | 1.03 | 0.942 | 0.846
34 | Cc1c(C(=O)N2CCOc3ccc(-c4ccc(N)nc4)cc3C2)ccc(S(C)(=O)=O)c1F | 0.663 | 0.781 | 0.338 | 0.389
35 | CC(C)(O)CC(=O)NCCn1ccc2ncnc(Nc3ccc(Oc4cccc(C(F)(F)F)c4)c(Cl)c3)c21 | 0.978 | 1.01 | 0.443 | 0.857
36 | C[C@H](Nc1ncnc2nc[nH]c12)c1cc2cccc(Cl)c2c(=O)n1-c1ccccc1 | 0.77 | 0.863 | 0.628 | 0.78
37 | CC(NCCc1ccc(O)cc1)C(O)c1ccc(O)cc1 (centres undefined) [Ritodrine HCl] | 0.814 | 0.85 | 0.709 | 0.844
38 | Fc1ccc(CNc2ncnc3ccc(F)cc23)cc1 [Spautin-1] | 0.675 | 0.763 | 0.67 | 0.447
39 | CCS(=O)(=O)N1CCC([C@@H](C)n2c(C)c(C(=O)NCc3c(OC)cc(C)[nH]c3=O)c3ccccc32)CC1 | 0.746 | 0.93 | 0.908 | 0.836
40 | O=S(=O)(N=Cc1c(O)ccc2ccccc12)c1cccs1 | 0.71 | 0.953 | 0.696 | 0.77
41 | Cc1c(OCC(F)(F)F)ccnc1C[S+]([O-])c1nc2ccccc2[nH]1 (centres undefined) [Lansoprazole] | 1 | 1.02 | 1.01 | 0.939
42 | O=C1CCc2c(ccc3ccccc23)O1 [Splitomicin] | 0.823 | 0.967 | 0.757 | 0.792

Row | SMILES | fractional viability [1] | fractional viability [2] | fractional viability [3] | fractional viability [4]
43 | CC[C@@H]1C(=O)N(C)c2cnc(Nc3ccc(C(=O)NC4CCN(C)CC4)cc3OC)nc2N1C1CCCC1 | 0.505 | 0.481 | 0.092 | 0.116
44 | COc1ccc2cc1Oc1ccc(cc1)C[C@H]1c3c(cc4c(c3Oc3cc5c(cc3OC)CCN(C)[C@@H]5C2)OCO4)CCN1C [Cepharanthine] | 0.788 | 0.904 | 0.105 | 0.0947
45 | NC1=N[C@@]2(c3cc(NC(=O)c4ccc(F)cn4)ccc3F)COC[C@H]2CS1 | 1.19 | 1 | 1.11 | 0.986
46 | OCC(O)CN1CCN(c2ccccc2)CC1 (centres undefined) [Dropropizine] | 0.973 | 1.07 | 0.996 | 1.17
47 | COc1ccccc1N1CCN(CCN2C(=O)CC3(CCCC3)CC2=O)CC1 | 0.889 | 1.11 | 0.882 | 1.05
48 | CN(C)CCC(c1ccc(Cl)cc1)c1ccccn1 (centres undefined) [Chlorpheniramine Maleate] | 0.949 | 0.963 | 0.945 | 0.918
49 | CCC(=O)NCC[C@@H]1CCc2ccc3c(c21)CCO3 [Ramelteon] | 1.04 | 1.09 | 0.92 | 1.12
50 | COC1=CC(=O)C[C@@H](C)[C@]12Oc1c(Cl)c(OC)cc(OC)c1C2=O [Griseofulvin] | 1.2 | 1.25 | 0.442 | 0.647
51 | CC(C)(C)c1cc(/C=C(\C#N)C(N)=S)cc(C(C)(C)C)c1O [Tyrphostin AG 879] | 1 | 1.01 | 0.322 | 0.432
52 | COc1ccc(-c2coc3cc(O)cc(O)c3c2=O)cc1 [Biochanin A] | 1.06 | 1.04 | 0.968 | 1.05
53 | O=S(=O)(NCCNC/C=C/c1ccc(Br)cc1)c1cccc2cnccc12 | 0.892 | 1.01 | 0.733 | 0.821
54 | NS(=O)(=O)NCCNc1nonc1/C(=N/O)Nc1ccc(F)c(Br)c1 | 0.886 | 0.972 | 0.788 | 0.722
55 | O[C@@H](COc1cccc2ncccc12)CN1CCN(C2c3ccccc3[C@@H]3[C@H](c4ccccc42)C3(F)F)CC1 (some centres undefined) | 0.948 | 0.961 | 0.386 | 0.769
56 | O=CN1CC/C(=C/c2ccc3c(c2)OCO3)C1=O | 0.723 | 0.973 | 0.78 | 0.692
57 | O=C(NC1CCNCC1)c1n[nH]cc1NC(=O)c1c(Cl)cccc1Cl | 0.29 | 0.247 | 0.31 | 0.266
58 | CC(C)c1noc(N2CCC(COc3ccc(-c4ccc(S(C)(=O)=O)cc4)nc3)CC2)n1 | 1.06 | 1.08 | 0.932 | 1.07
59 | CC[C@H](Nc1ncnc2[nH]cnc12)c1nc2cccc(F)c2c(=O)n1-c1ccccc1 [CAL-101 (Idelalisib, GS-1101)] | 0.947 | 1.11 | 0.863 | 0.971
60 | CCCC(CCC)C(=O)O [Divalproex Sodium] | 0.974 | 1.13 | 0.957 | 1.1
61 | CCCC(CCC)C(=O)O [Valproic acid sodium salt (Sodium valproate)] | 1.03 | 1.08 | 0.897 | 1.15
